Among all 55,000 compounds or so, about 530 (0.96%) were called active. This list was built around the results that the source calls inconclusive (neither active nor inactive); the mix of calls is not that of the screen. The call rests on the fitted dose curve; in most records, active means well fitted cell-killing curve with a large enough effect; inconclusive means small, poorly fitted or top-dose-only effect; inactive means no such curve, though single readings can be large or run the other way. Potencies of inconclusive entries are doubtful fits and often do not repeat.
Assay: qHTS Screen for Compounds that Selectively Target Cancer Cells with p53 Mutations: Cytotoxicity of p53 Null Cells at the Nonpermissive Temperature; further: nearly all actives have a fitted effect of over 50% in size;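 on activity, negative = cell killing: 0% = DMSO only and -100% = full killing by 100 µM tamoxifen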
Conditions: H1299 p53-null (neo) cells, 39C, ATPlite viability, 24 h; activity, negative = cell killing: at 46.1 µM (top of the series)
Procedure, shortened: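 ATP-luminescence viability readout (ATPlite, 20 min RT) after 24 hr compound treatment at 39C of H1299-neo or H1299-p53A138V cells; titration up to 46 uM; normalized to DMSO and 100 uM tamoxifen; Hill-fit AC50.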
Potency means the concentration at half of the fitted maximal effect; tags describe the fitted curve by direction and shape.

| SMILES | Potency | activity, negative = cell killing |
| --- | --- | --- |
| COc1ccc(OC)c(NC(=O)c2sc3nc4c(cc3c2N)CCCCCC4)c1 | inconclusive: 12.6 µM [cytotoxic, single point] | – |
| CCOC(=O)c1cnc2ccccc2c1Nc1ccc(N2CCOCC2)cc1 | – | inactive: 28.8% |
| COc1cccc(NC(=O)C(=O)NCCc2csc3nc(-c4ccccc4C)nn23)c1 | – | inactive: 2.34% |
| COc1cc(-c2noc(C3CC(=O)N(c4cc(C)ccc4C)C3)n2)cc(OC)c1OC (stereo not drawn) | – | inactive: 1.67% |
| Cc1ccc(CNc2ncnc3c2cnn3-c2ccc(C)cc2C)cc1 | – | inactive: 75.8% |
| Cc1cc(C)c(NC(=O)Cn2nnc(C(=O)Nc3ccc(F)cc3F)c2N)c(C)c1 | inconclusive: 0.0316 µM [cytotoxic, full curve, poor fit] | – |
| COC(=O)CN1C(=O)CSc2ccc(S(=O)(=O)Nc3c(C)cc(C)cc3C)cc21 | – | inactive: -3.62% |
| CCS(=O)(=O)c1oc(-c2ccc(F)cc2)nc1S(=O)(=O)c1ccc(Br)cc1 | inconclusive: 25.1 µM [cytotoxic, single point] | – |
| O=S(=O)(Nc1cccc(F)c1)c1ccc2[nH]c3c(c2c1)CCCCC3 | active: 15.8 µM | – |
| CCOC(=O)c1cccc(NC(=O)CSc2nc3cc4ccccc4cc3[nH]2)c1 | inconclusive: 25.1 µM [cytotoxic, single point] | – |
| COc1ccc(Nc2nc3ccccc3nc2NS(=O)(=O)c2ccc(Cl)cc2)cc1OC | inconclusive: 5.01 µM [cytotoxic, partial curve] | – |
| Cc1cccc(NC(=O)CSc2nc3ccccc3c3nc(CCc4c(C)n[nH]c4C)nn23)c1 | inconclusive: 22.4 µM [cytotoxic, single point] | – |
| Cc1ccccc1OCc1nnc(SCc2cc(=O)c3ccc(C)c(C)c3[nH]2)n1C | inconclusive: 0.01 µM [cytotoxic, full curve, poor fit] | – |
| COc1cccc(-c2nc(SCc3ccc(C)cc3)n3[nH]c(=O)cc3n2)c1 | inconclusive: 12.6 µM [cytotoxic, single point] | – |
| O=C(CCS(=O)(=O)c1nc(-c2cccs2)cc(C(F)(F)F)n1)Nc1ccc(F)c(Cl)c1 | inconclusive: 17.8 µM [cytotoxic, single point] | – |
| CCOc1ccc(NC(=O)c2sc3nc4c(cc3c2N)CN(Cc2ccccc2)CC4)cc1 | – | inactive: -14.2% |
| Cn1c(=O)c2sccc2n2c(CCCC(=O)Nc3ccc(Oc4ccc(Cl)cc4)cc3)nnc12 | inconclusive: 25.1 µM [cytotoxic, single point] | – |
| CCOc1ccccc1CNC(=O)CCn1ccc2cc(S(=O)(=O)N3CCCCC3)ccc21 | inconclusive: 2 µM [cytotoxic, single point] | – |
| Cc1ccccc1NS(=O)(=O)c1ccc2[nH]c3c(c2c1)CCCCC3 | inconclusive: 11.2 µM [cytotoxic, partial curve] | – |
| COc1ccc(/C=C/C(=O)Nc2ccc(Cl)c(Cl)c2)cc1 | inconclusive: 2 µM [cytotoxic, partial curve] | – |
| CCOC(=O)c1cnc2ccccc2c1Nc1cccc(OC)c1 | inconclusive: 25.1 µM [cytotoxic, single point] | – |

| SMILES | Potency | activity, negative = cell killing |
| --- | --- | --- |
| O=C(NC1CCCCCC1)C1c2ccccc2C(=O)N1Cc1ccccc1Cl (stereo not drawn) | inconclusive: 31.6 µM [cytotoxic, single point] | – |
| CCOc1ccc(-c2cc(-c3nc(-c4ccc(C)cc4)no3)[nH]n2)cc1 | inconclusive: 12.6 µM [cytotoxic, partial curve] | – |
| Cc1ccc(C)c(-c2nnc(NC(=O)c3ccc4c(c3)OCCO4)o2)c1 | active: 7.94 µM | – |
| CCN(CC)Cc1c(NC(=O)c2ccc(OC)cc2)sc2c1CCCC2 | inconclusive: 2.51 µM [cytotoxic, partial curve] | – |
| COc1ccccc1N1CCN(C(=O)c2c(C)oc3ncn(CC(C)C)c(=O)c23)CC1 | inconclusive: 3.98 µM [cytotoxic, single point] | – |
| CCOc1ccc(Nc2cc(C)nc3nc(Cc4ccc(Cl)cc4)nn23)cc1 | inconclusive: 12.6 µM [cytotoxic, partial curve, poor fit] | – |
| Cc1ccc(-n2nc3c(N4CCC(C(=O)NC(C)c5ccccc5)CC4)nnc(C)c3c2C)cc1 (stereo not drawn) | inconclusive: 4.47 µM [cytotoxic, full curve] | – |
| Cc1cc(C)cc(NC2=C(c3ccccc3)C(=O)c3ccccc32)c1 | inconclusive: 15.8 µM [cytotoxic, partial curve] | – |
| COc1cccc(CNC(=O)CSc2nnc(C)c3c(C)n(-c4ccccc4)nc23)c1OC | inconclusive: 25.1 µM [cytotoxic, single point] | – |
| O=C(Nc1nnc(C(F)(F)F)s1)c1cccnc1 | inconclusive: 5.01 µM [cytotoxic, partial curve, poor fit] | – |
| CCCCOc1ccc(CNC(=O)c2ccc(-c3nc(CN4CCc5ccccc54)c(C)o3)cc2)cc1 | inconclusive: 0.126 µM [cytotoxic, full curve, poor fit] | – |
| CCOC(=O)c1cnc2c(ccc3ccccc32)c1Nc1ccccc1OC | – | inactive: -16.8% |
| Cc1ccc2[nH]c(C(=O)Nc3ccccc3)cc2c1 | inconclusive: 11.2 µM [cytotoxic, partial curve] | – |
| Cc1ccc(C(=O)Nc2ccccc2C(=O)O)cc1S(=O)(=O)N1CCCCCC1 | active: 10 µM | – |
| CC(NS(=O)(=O)c1ccc(OCC(=O)N2CCOCC2)cc1)c1ccccc1 (stereo not drawn) | – | inactive: -0.708% |
| O=C(NCCCN1CCN(c2ccccc2F)CC1)c1cc2c(Cl)nc3ccccc3c2s1 | inconclusive: 3.98 µM [cytotoxic, partial curve, poor fit] | – |
| Cc1ccc(C)c(-n2cc(-c3ccccc3)nc2SCC(=O)Nc2ccccc2)c1 | inconclusive: 2.51 µM [cytotoxic, full curve, poor fit] | – |
| COc1ccc(NC(=O)Cn2c(=O)n(Cc3ccccc3)c(=O)c3oc4ccccc4c32)cc1Cl | inconclusive: 12.6 µM [cytotoxic, single point] | – |
| Cc1ccc(C)c(Nc2cc(C(=O)NCCCN(C)C3CCCCC3)c3ccccc3n2)c1 | inconclusive: 10 µM [cytotoxic, single point] | – |
| Cc1nnc(N(Cc2ccco2)C(=O)c2ccc(C#N)cc2)s1 | inconclusive: 0.0891 µM [cytotoxic, full curve, poor fit] | – |
| CN(CC(=O)Nc1ccc(Cl)cc1)CC(=O)Nc1ccc(F)c(F)c1F | inconclusive: 35.5 µM [cytotoxic, single point] | – |

| SMILES | Potency | activity, negative = cell killing |
| --- | --- | --- |
| CCOC(=O)c1nc(Nc2ccc(C(=O)OC)cc2)c2ccccc2n1 | – | inactive: 2.12% |
| COc1cc(NC(=O)N2CCC3(CC2)Nc2ccccc2-n2cccc23)cc(OC)c1OC | inconclusive: 14.1 µM [cytotoxic, single point] | – |
| CCOc1ccc(NC(=O)Cn2nnc(C(=O)NCCc3ccccc3)c2N)cc1 | inconclusive: 7.94 µM [cytotoxic, partial curve] | – |
| Cc1ccc(-n2nc3c(n2)/C(=N/O)CC/C3=N\O)cc1 | inconclusive: 11.2 µM [cytotoxic, single point] | – |
| O=S(=O)(c1ccc(F)cc1)N(CC(O)Cn1c2ccccc2c2ccccc21)c1ccccc1 (stereo not drawn) | inconclusive: 12.6 µM [cytotoxic, partial curve] | – |
| Cc1ccc2sc(-c3ccc(N)cc3)nc2c1 | active: 1.58 µM | – |
| CSc1ccc(CNC(=O)Cn2nc(N3CCN(c4ccccc4)CC3)ccc2=O)cc1 | inconclusive: 0.0398 µM [cytotoxic, full curve, poor fit] | – |
| CSc1ccc(C2C(C(=O)Nc3ccccc3)=C(C)Nc3nc4ccccc4n32)cc1 (stereo not drawn) | inconclusive: 31.6 µM [cytotoxic, single point] | – |
| COCCNc1nc2c(c(=O)n(C)c(=O)n2C)n1Cc1c(F)cccc1Cl | – | inactive: -25.3% |
| O=C(Nc1ccc(Cl)cc1)C1CCC(CNS(=O)(=O)c2ccc(Br)s2)CC1 (stereo not drawn) | inconclusive: 11.2 µM [cytotoxic, partial curve, poor fit] | – |
| CCN(c1ccccc1)S(=O)(=O)c1nnc(NC(=O)c2ccccc2OC)s1 | inconclusive: 0.0158 µM [cytotoxic, full curve, poor fit] | – |
| COC(=O)c1ccc(NC(=O)CSc2cn(CC(=O)N3CCCCC3)c3ccccc23)cc1 | inconclusive: 0.02 µM [cytotoxic, full curve, poor fit] | – |
| Cc1ccc(F)cc1NC(=O)CSc1nc(-c2cccs2)cc(C(F)(F)F)n1 | – | inconclusive: -31.1% [cytotoxic] |
| CCOc1ccc(C(=O)Nc2ccc3nc(Nc4cccc(C(F)(F)F)c4)cc(C)c3c2)cc1OCC | – | inactive: -3.55% |
| CC(=O)c1cccc(NS(=O)(=O)c2ccc3[nH]c4c(c3c2)CCCCC4)c1 | inconclusive: 20 µM [cytotoxic, partial curve, poor fit] | – |
| Cc1ccc(NC(=O)c2sc3ncnc(N(C)C4CCCCC4)c3c2C)c(C)c1 | – | inactive: 2.58% |
| Cc1cc(C)c(S(=O)(=O)NCCc2sc3nc(-c4ccc(F)cc4)nn3c2C)c(C)c1 | inconclusive: 11.2 µM [cytotoxic, partial curve] | – |
| COCCCn1c(=N)c(C(=O)NC2CCCC2)cc2c(=O)n3cccc(C)c3nc21 | – | inactive: 7.33% |
| COc1ccc(N2CCN(C(=O)c3cnc(N4CCOCC4)c4ccccc34)CC2)cc1 | inconclusive: 31.6 µM [cytotoxic, single point] | – |
| CCOc1ccccc1CNCc1c(C(=O)O)n(Cc2ccccc2)c2cc(OC)ccc12 | inconclusive: 0.0126 µM [cytotoxic, full curve] | – |
| CCOc1ccc(CNc2cc(C)nc3nc(-c4cccc(C)c4)nn23)cc1OC | inconclusive: 0.251 µM [cytotoxic, full curve] | – |

From PubChem BioAssay AID904 (National Center for Advancing Translational Sciences (NCATS), 2007)
